Our source for the IC50 values is PMC10478803 (2023).

The target of the experiment is HLA-DP5 (DPA1*02:02 and DPB1*05:01), full-length, expressed in HEK293 cells (human). Briefly: FACS; competition with biotin-HA1 peptide (10 ug/mL).

B1: NF[S(P–2)E/K(P–3)E]-pCj1 peptide, S(P–2)E/K(P–3)E mutant of the C-terminally-flanked NF-pCj1 (16-residue) (peptide)
chain: DEEMKVTVAFNQFGPN
The term IC50 denotes the concentration at which inhibition is half-maximal. B1 returned an IC50 of 79.7 µg/mL.

B2: NF[WT]-pCj1 peptide, C-terminally-flanked version of NF-pCj1 (16-residue) (peptide)
peptide: DKSMKVTVAFNQFGPN
For the molecule B2, the 50% inhibitory concentration (IC50) was determined as 39.4 µg/mL.
